In the supplement of paper PMC10126150:
Sequences with one replicate were seen in a single cluster, so their values are uncertain.
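Also: ATP exposure 15 min at 22 °C before imaging.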

Each sequence was assayed on ATP (assay: switch fluorescence ratio, 500 uM ATP over buffer (Cy3 cluster intensity, sum of 5 cycles each) (fold (ratio)); higher = stronger signal-on switching upon ATP binding; sequences stand for … in TCGTCGGCAGCGTCAGATGTGTATAAGAGACAGTTTTTTTTTTTTTTTTTTTTTTTTT…TC). Conditions: aptamer strand: ATP DNA aptamer (quencher-CACCTGGGGGAGTATTGCGGAGGAAGG + anchor), 100 nM annealed; ATP concentration: 500 uM; one replicate.
Procedure, shortened: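 Clusters with intensities outside 100-1000 RFU were excluded. The remaining Cy3-labelled switching-strand clusters on a modified Illumina MiSeq flow-cell had been annealed to 100 nM quencher-labelled ATP aptamer and imaged in selection buffer, then after 15 min with 500 uM ATP at 22 °C, for five cycles separated by NaOH stripping and re-annealing. The fluorescence ratio, averaged per switch-domain sequence, is each cluster's summed target-cycle Cy3 intensity over its summed buffer-cycle Cy3 intensity.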
Sequence AGTTACTCAT has a switch fluorescence ratio of 0.988. TCCAATAGGG gave a switch fluorescence ratio of 1.01. In the case of GTTAGGTGAT, the switch fluorescence ratio was 1.07. AAATTGAACG gave a switch fluorescence ratio of 1.02. Sequence ATGACAGGGC has a switch fluorescence ratio of 1.04. GAAATAATTA was tested, and the switch fluorescence ratio was 0.991. In the case of CTTGATTAGA, the switch fluorescence ratio was 0.963. ATACCGCTTA gave a switch fluorescence ratio of 1.28. For ACTTCTTGCG, the switch fluorescence ratio was 1.05. ATCCCCGTT showed a switch fluorescence ratio of 1.05. Work on ATATTTGACC yielded a switch fluorescence ratio of 0.966. TAGGTCATGT was tested, and the switch fluorescence ratio was 1.04. Work on GAAGGTCTCG yielded a switch fluorescence ratio of 0.992. AAAACCTAAA was tested, and the switch fluorescence ratio was 0.993. In the case of TGTTGTGTAC, the switch fluorescence ratio was 1.03. GTTGCCTAGC showed a switch fluorescence ratio of 0.955. With GAATCTGGCT the switch fluorescence ratio was 1.02. TGACTATTTC was tested, and the switch fluorescence ratio was 0.982. In the case of CCCCTGTTGG, the switch fluorescence ratio was 1.2. TTCCATTTAT gave a switch fluorescence ratio of 1.04. For TGATAGTCTT, the switch fluorescence ratio was 0.953. Sequence ATCACTAACA has a switch fluorescence ratio of 1.14. AGTCAATTAT gave a switch fluorescence ratio of 1.05. CGCGATGCAC showed a switch fluorescence ratio of 2.58. Work on TGAGGCTTCA yielded a switch fluorescence ratio of 1.07. ATAGAAACGG showed a switch fluorescence ratio of 1.11. Sequence ATTACTCGAA has a switch fluorescence ratio of 1.01. Work on TTCGCACGGG yielded a switch fluorescence ratio of 1.03. CGCAACTTTG gave a switch fluorescence ratio of 1.1. In the case of AAATGAGCGT, the switch fluorescence ratio was 1.04. With GGCAAACCTA the switch fluorescence ratio was 1.04. Work on TAAAGGGCCA yielded a switch fluorescence ratio of 1.33. For CCAGCTAATA, the switch fluorescence ratio was 1.85. In the case of ATCAGTTCAC, the switch fluorescence ratio was 1.01. In the case of CTGTTGCGCG, the switch fluorescence ratio was 1.04. With TTCTTTGAGC the switch fluorescence ratio was 0.989. For TTGATCTCGC, the switch fluorescence ratio was 1.02. Work on CATGACTCAG yielded a switch fluorescence ratio of 1.01. In the case of TTGTATAGCA, the switch fluorescence ratio was 1.01. GCTACAGCGC showed a switch fluorescence ratio of 1.05. Work on AGTCGAATTT yielded a switch fluorescence ratio of 0.966. For CAATCTGTTC, the switch fluorescence ratio was 1. In the case of TTGGGCCAAT, the switch fluorescence ratio was 0.969. CACTTGACGC showed a switch fluorescence ratio of 1.15. In the case of TGATTTTTCC, the switch fluorescence ratio was 1.1. TTGAATATCC was tested, and the switch fluorescence ratio was 0.995. GGATCCCTCG gave a switch fluorescence ratio of 1.06. Work on ACAGGCAGAC yielded a switch fluorescence ratio of 1.26. For ATTTGTTCAG, the switch fluorescence ratio was 0.985. CCCCGGCAGA gave a switch fluorescence ratio of 3.07. Work on GTATCAGATT yielded a switch fluorescence ratio of 1.02. GGTAATCCAC gave a switch fluorescence ratio of 1.06. ACGATGTCTT showed a switch fluorescence ratio of 1.02. TAACTCGACT was tested, and the switch fluorescence ratio was 1.06. In the case of AAGTTCGGCT, the switch fluorescence ratio was 0.998. For GGACTATAGC, the switch fluorescence ratio was 1. In the case of CTTTTTCTGT, the switch fluorescence ratio was 1.01. AGTAAGAGGA was tested, and the switch fluorescence ratio was 1. For TCTGCAGACG, the switch fluorescence ratio was 1.08. Sequence TAGAAGCTGG has a switch fluorescence ratio of 0.994. CAATTTTAGC showed a switch fluorescence ratio of 1.01. For CTTAGAGGGG, the switch fluorescence ratio was 0.996. AGGGTTGCTT was tested, and the switch fluorescence ratio was 0.984. AAGCGCTGGT was tested, and the switch fluorescence ratio was 0.983. CCACGGTCGA showed a switch fluorescence ratio of 1.06. GCTGCCGCCG was tested, and the switch fluorescence ratio was 1.06. Sequence CGACATTG has a switch fluorescence ratio of 1.06. In the case of GTGTATTGTG, the switch fluorescence ratio was 0.982. CCTTCTACCT showed a switch fluorescence ratio of 1.23. With GGCCTGCGCT the switch fluorescence ratio was 1.11. Work on GGTTCGCGCA yielded a switch fluorescence ratio of 0.988. AGGTACAGCG showed a switch fluorescence ratio of 1.09. Work on TCGCCCCGAC yielded a switch fluorescence ratio of 1.31. AAAAGTGCTC gave a switch fluorescence ratio of 1.07. With TCGGGGGACG the switch fluorescence ratio was 1.03. TAATACGTT was tested, and the switch fluorescence ratio was 0.999. Sequence TTTGTGGCCC has a switch fluorescence ratio of 1.09. With TGCGCTTCTC the switch fluorescence ratio was 1.12. With ATGCCATCAA the switch fluorescence ratio was 1.01. Work on CGCCTGAATG yielded a switch fluorescence ratio of 0.991. With GTTGGCGTTA the switch fluorescence ratio was 0.981. With TCTATAAGT the switch fluorescence ratio was 1.03. CGTATCGGAA gave a switch fluorescence ratio of 1.02. For TCGGCAGCGC, the switch fluorescence ratio was 0.971. CGGTTAAATT gave a switch fluorescence ratio of 1. TAAGAGTTGT was tested, and the switch fluorescence ratio was 1.01. TTCAGTCGCA showed a switch fluorescence ratio of 1.01. GAAGTTTTTA was tested, and the switch fluorescence ratio was 0.981. ATGTAAAATC gave a switch fluorescence ratio of 1.01. Work on AGTTTGCAC yielded a switch fluorescence ratio of 1.02. With GACGCACAAT the switch fluorescence ratio was 1.61. ACTCCCTTCT showed a switch fluorescence ratio of 1.27. TGCCATGTCA gave a switch fluorescence ratio of 0.998. ACTTCGTCAC gave a switch fluorescence ratio of 1.56. Work on CGACGGTCTT yielded a switch fluorescence ratio of 1.02. GGCGAATCTT gave a switch fluorescence ratio of 1.06. Sequence AACGCCATTG has a switch fluorescence ratio of 1.09. Work on GGTGAGTCAA yielded a switch fluorescence ratio of 0.995. For AGGTCCAACA, the switch fluorescence ratio was 1.07. TCTTCGAAAT gave a switch fluorescence ratio of 1.8. Work on AATGATAGAC yielded a switch fluorescence ratio of 1.06. TGTTTGGGAT showed a switch fluorescence ratio of 1.01. CGCCTCTGGG showed a switch fluorescence ratio of 1.07. Work on CCTTTTACAT yielded a switch fluorescence ratio of 1.02. ATTTGGGTG showed a switch fluorescence ratio of 1.09. TACAAAGCAT was tested, and the switch fluorescence ratio was 1.13. CGAGTTGTCG gave a switch fluorescence ratio of 1.05. AGCTCGCTAT was tested, and the switch fluorescence ratio was 1.01. Sequence ATTTCGACAG has a switch fluorescence ratio of 0.989. CCTATAACGA was tested, and the switch fluorescence ratio was 1.05. In the case of AGCGCAGTAC, the switch fluorescence ratio was 3.91. GTGCCGTGGC showed a switch fluorescence ratio of 1. For TCTGTAAGTA, the switch fluorescence ratio was 1.01. TGGCCAGCGT showed a switch fluorescence ratio of 1.02. For ATGTCTATCC, the switch fluorescence ratio was 1.02. For AGATACGTTT, the switch fluorescence ratio was 0.989. For GTGATAATTA, the switch fluorescence ratio was 1.03. With GTCGTTGGAT the switch fluorescence ratio was 1.03. Work on GAGCGCGACA yielded a switch fluorescence ratio of 0.991. Work on CATGATTTTT yielded a switch fluorescence ratio of 1.07. CCCGAAGTTA showed a switch fluorescence ratio of 1.14. Work on TACGGCTAGT yielded a switch fluorescence ratio of 1.02. For TTATGATTGA, the switch fluorescence ratio was 1.01. Sequence TATCTGGACC has a switch fluorescence ratio of 1. In the case of CCAGCATCTA, the switch fluorescence ratio was 1.18. In the case of TAAGTCCGAC, the switch fluorescence ratio was 1.04. In the case of TGAAAGTCGA, the switch fluorescence ratio was 1.03. TTTAGGGCAG was tested, and the switch fluorescence ratio was 0.953. For TCGTAACTAG, the switch fluorescence ratio was 1.01. Sequence AAGGTGGGAT has a switch fluorescence ratio of 1.02. TACAGAGC gave a switch fluorescence ratio of 0.977. CATAACTAGT was tested, and the switch fluorescence ratio was 1. Work on AATTATCCGG yielded a switch fluorescence ratio of 0.994. CAGCCTCGAG gave a switch fluorescence ratio of 0.991. Sequence TGTGAAACGA has a switch fluorescence ratio of 1.04. For GCGAGGTTGC, the switch fluorescence ratio was 1.04. Sequence ATTAGCATGC has a switch fluorescence ratio of 1.05. Sequence CGGAGTTGCC has a switch fluorescence ratio of 1.03. For ATATGCTTGG, the switch fluorescence ratio was 1.02. AGCCTGATAC was tested, and the switch fluorescence ratio was 2.51. With GGCGCAGCAT the switch fluorescence ratio was 0.992. With AAAGATAAAT the switch fluorescence ratio was 0.992. AGATCATGTA was tested, and the switch fluorescence ratio was 0.988. With ACCGGTTTAC the switch fluorescence ratio was 1.17. GCTGGACTG gave a switch fluorescence ratio of 1.03. TTTGGCCGAA was tested, and the switch fluorescence ratio was 1.05. Sequence AGGCAGCTGG has a switch fluorescence ratio of 1.03. In the case of GTAGCTTTAT, the switch fluorescence ratio was 1.23. For CCGGATCGTC, the switch fluorescence ratio was 1.09. For GTGCTTTCTA, the switch fluorescence ratio was 0.978. With TGGGGTAGAC the switch fluorescence ratio was 1.01. TTTCTGTTTA was tested, and the switch fluorescence ratio was 0.976. ATGCGTGGCA gave a switch fluorescence ratio of 1.02. AAAAGATGGA gave a switch fluorescence ratio of 1.09. Sequence TTTGCACCTA has a switch fluorescence ratio of 1.05. GGCTTATTC gave a switch fluorescence ratio of 0.994. Work on TCTTGTGCAG yielded a switch fluorescence ratio of 0.983. In the case of AAAGAATGGA, the switch fluorescence ratio was 0.982. Sequence GGGGCGAGTA has a switch fluorescence ratio of 0.991. Work on GAGCAAAGGA yielded a switch fluorescence ratio of 1.02. Sequence ATTGGACGTG has a switch fluorescence ratio of 0.952. AGCCGGCACG showed a switch fluorescence ratio of 1.02. With CTCCATGGAG the switch fluorescence ratio was 0.966. Work on AAGGGTGCCG yielded a switch fluorescence ratio of 0.995. With GCGATGGGAT the switch fluorescence ratio was 1.04. ATGTTAACC gave a switch fluorescence ratio of 0.951. With TGGCACATAA the switch fluorescence ratio was 1. AGCTTATACT gave a switch fluorescence ratio of 2.57. In the case of GAGCTATTTA, the switch fluorescence ratio was 1.09. Work on CTGCCTAAGT yielded a switch fluorescence ratio of 1.05. Sequence TGAACATTCG has a switch fluorescence ratio of 1.17. Sequence CATAGTACGG has a switch fluorescence ratio of 1.04. Work on ACGAATCAAC yielded a switch fluorescence ratio of 1.11. Sequence GGGGTTAAT has a switch fluorescence ratio of 1.01. With ATGTACAGTA the switch fluorescence ratio was 1.07. Work on CGACTTAGAA yielded a switch fluorescence ratio of 0.997. In the case of CTTAATTCGC, the switch fluorescence ratio was 1.11. TTGAATATAC showed a switch fluorescence ratio of 2.35. Work on GGCTTTCATC yielded a switch fluorescence ratio of 1.04. AGATAACCGC was tested, and the switch fluorescence ratio was 1.12. In the case of CAGATGGCAT, the switch fluorescence ratio was 1.02. Work on TAATTGAAAC yielded a switch fluorescence ratio of 1.03. In the case of TGTTTAGGA, the switch fluorescence ratio was 1.04. GGGGATATAG showed a switch fluorescence ratio of 1.03. Sequence TAGTTCGTTA has a switch fluorescence ratio of 1.01. Work on TGGTATCTGA yielded a switch fluorescence ratio of 0.954. In the case of AACCTGAATC, the switch fluorescence ratio was 1.76. GTGGAGGGGT showed a switch fluorescence ratio of 1.02. Sequence GCTCGATGTA has a switch fluorescence ratio of 1.07. ATTATGCTA showed a switch fluorescence ratio of 1.02. TGCAGCCATT gave a switch fluorescence ratio of 1.01. CTGGGCACTC was tested, and the switch fluorescence ratio was 1.15. For CATTGACAGC, the switch fluorescence ratio was 1.01. For CCGCCGGTCC, the switch fluorescence ratio was 2.73. Sequence TGGTGGTTTG has a switch fluorescence ratio of 1.05. In the case of TTATACCCAG, the switch fluorescence ratio was 1.01. Sequence ATAGCCTCTT has a switch fluorescence ratio of 1.01. In the case of TACCGTGTAC, the switch fluorescence ratio was 1.01. Sequence TATGAATTGA has a switch fluorescence ratio of 1.02. TCTGTACGCG gave a switch fluorescence ratio of 1.05.
